Consider six compounds from patent US20260256811A1, “Humoral Immune Activators for the Treatment of Humoral Immunosuppressed Pathologies, Cancer and Infectious Disease and Humoral Immune Suppressors for the Treatment of Inflammatory Diseases” (Navrogen, Inc., priority 2022, published 2026).

One experiment addresses CD16a-158F FcR (Homo sapiens, UniProt P08637). Description: ELISA: huCD16a-158F-HIS FcR probe binding to coated human IgG1. The following applies: for enhancement of huCD16a-158F FcR binding to IgG1 antibody: ELISA, words. For orientation: An ELISA detects its analyte on a solid surface through an enzyme-linked reagent.
Another experiment has as its target huCD16a-158V FcR (Homo sapiens, UniProt P08637, F176V). Nature of the experiment: ELISA: huCD16a-158V-HIS FcR probe binding to coated human IgG1. The following applies: words.
In another experiment the test system is CD16a FcR. The following applies: ELISA, words.
Experiment [1] has as its target T1, murine CD16a homolog 1 (FCGR3) (Mus musculus, UniProt P08508).
T1 sequence (P08508 with tags, fused parts or gaps): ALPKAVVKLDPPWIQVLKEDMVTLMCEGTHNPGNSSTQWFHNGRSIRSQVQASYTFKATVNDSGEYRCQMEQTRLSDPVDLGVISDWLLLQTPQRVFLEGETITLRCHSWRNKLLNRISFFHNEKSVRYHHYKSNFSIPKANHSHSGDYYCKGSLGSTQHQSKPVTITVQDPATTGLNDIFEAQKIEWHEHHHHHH
Description: ELISA: muFCGR3-HIS probe binding to human IgG1. The settings on record: words.

Chain of huCD16a-158V FcR (P08637 17-206 F176V): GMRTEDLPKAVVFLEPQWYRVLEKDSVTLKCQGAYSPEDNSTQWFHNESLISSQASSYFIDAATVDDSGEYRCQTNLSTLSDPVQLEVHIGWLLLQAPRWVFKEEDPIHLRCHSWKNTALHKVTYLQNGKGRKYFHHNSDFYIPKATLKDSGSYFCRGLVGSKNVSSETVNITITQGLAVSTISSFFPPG

As to `CC(C)=CCC[C@@H](C)[C@H]1CC[C@@]2(C)C3=C(CC[C@]12C)[C@@]1(C)CC[C@H](O)C(C)(C)[C@@H]1CC3` [Compound 1, lanosta-8,24-dien-3β-ol], the “enhancement of huCD16a-158F FcR binding to IgG1 antibody” value at CD16a-158F FcR was “significantly enhance”. Further, the “enhancement of huCD16a-158V FcR binding to IgG1 antibody” value at huCD16a-158V FcR was “significantly enhance”.

Turning to `COc1cc(/C=C/C(=O)O[C@H]2CC[C@]34C[C@]35CC[C@]3(C)[C@@H]([C@H](C)CCC=C(C)C)CC[C@@]3(C)[C@@H]5CC[C@H]4C2(C)C)ccc1O` [Compound 12, cycloartenol ferulate], in the experiment with CD16a FcR, the “enhanced CD16a FcR-IgG antibody binding activity (SAR)” value is “completely inactive”.

On to `CC(C)=CCC[C@@H](C)[C@H]1CC[C@@]2(C)C3CC[C@H]4C(C)(C)[C@@H](O)CC[C@@]45C[C@@]35CC[C@]12C` (stereo partly shown) [Compound 2], for which the “enhancement of muFCGR3-HIS binding to human IgG1” value in experiment [1] is recorded as “enhances binding”. In addition, the “enhancement of huCD16a-158F FcR binding to IgG1 antibody” value at CD16a-158F FcR is recorded as “significantly enhance”. The “improvement of CD16a-158F-IgG antibody binding over control Compound 5” value at CD16a-158F FcR (titration ELISA, 2.5 μg/mL human IgG1 coat, 2.5 μg/mL huCD16a-158F-HIS) amounted to 4.7 fold. Also, at huCD16a-158V FcR, the “enhancement of huCD16a-158V FcR binding to IgG1 antibody” value was “significantly enhance”.

For the compound `CC(C)=CCC[C@@H](C)[C@H]1CC[C@H]2C3=C(CC[C@]12C)[C@@]1(C)CC[C@H](O)C[C@@H]1CC3` [Compound 6, 5α-cholesta-8,24-dien-3β-ol], the “enhanced CD16a FcR-IgG antibody binding activity (SAR)” value in the experiment with CD16a FcR is “loss of activity”.

Regarding “3-formyl cycloartenol 24-ketone [Compound 20]”, the “enhanced CD16a FcR-IgG antibody binding activity (SAR)” value in the experiment on CD16a FcR is reported as “retains enhanced CD16a FcR-IgG antibody binding”.

In the case of “3-β-hydroxy-4,4-dimethyl-5-a-bisnoralcohol [Compound 4]”, the “enhanced CD16a FcR-IgG antibody binding activity (SAR)” value with CD16a FcR is given as “retained binding activity”.
